Data from paper PMC4336329 (PLoS ONE, 2015).
The campaign covered roughly 310,000 compounds. About 14,000 (4.5%) showed an effect of 50% or more. Effects have a minus sign here. The list shows a part of the results.

biological target: human ether-à-go-go-related gene (hERG) potassium channel (human, UniProt Q12809); test: primary screen, population patch clamp on CHO cells stably expressing hERG
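Further: peak tail current of the secondary pulse compared with the same well before compound.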

human ether-à-go-go-related gene (hERG) potassium channel, sequence (Q12809 whole entry, looked up): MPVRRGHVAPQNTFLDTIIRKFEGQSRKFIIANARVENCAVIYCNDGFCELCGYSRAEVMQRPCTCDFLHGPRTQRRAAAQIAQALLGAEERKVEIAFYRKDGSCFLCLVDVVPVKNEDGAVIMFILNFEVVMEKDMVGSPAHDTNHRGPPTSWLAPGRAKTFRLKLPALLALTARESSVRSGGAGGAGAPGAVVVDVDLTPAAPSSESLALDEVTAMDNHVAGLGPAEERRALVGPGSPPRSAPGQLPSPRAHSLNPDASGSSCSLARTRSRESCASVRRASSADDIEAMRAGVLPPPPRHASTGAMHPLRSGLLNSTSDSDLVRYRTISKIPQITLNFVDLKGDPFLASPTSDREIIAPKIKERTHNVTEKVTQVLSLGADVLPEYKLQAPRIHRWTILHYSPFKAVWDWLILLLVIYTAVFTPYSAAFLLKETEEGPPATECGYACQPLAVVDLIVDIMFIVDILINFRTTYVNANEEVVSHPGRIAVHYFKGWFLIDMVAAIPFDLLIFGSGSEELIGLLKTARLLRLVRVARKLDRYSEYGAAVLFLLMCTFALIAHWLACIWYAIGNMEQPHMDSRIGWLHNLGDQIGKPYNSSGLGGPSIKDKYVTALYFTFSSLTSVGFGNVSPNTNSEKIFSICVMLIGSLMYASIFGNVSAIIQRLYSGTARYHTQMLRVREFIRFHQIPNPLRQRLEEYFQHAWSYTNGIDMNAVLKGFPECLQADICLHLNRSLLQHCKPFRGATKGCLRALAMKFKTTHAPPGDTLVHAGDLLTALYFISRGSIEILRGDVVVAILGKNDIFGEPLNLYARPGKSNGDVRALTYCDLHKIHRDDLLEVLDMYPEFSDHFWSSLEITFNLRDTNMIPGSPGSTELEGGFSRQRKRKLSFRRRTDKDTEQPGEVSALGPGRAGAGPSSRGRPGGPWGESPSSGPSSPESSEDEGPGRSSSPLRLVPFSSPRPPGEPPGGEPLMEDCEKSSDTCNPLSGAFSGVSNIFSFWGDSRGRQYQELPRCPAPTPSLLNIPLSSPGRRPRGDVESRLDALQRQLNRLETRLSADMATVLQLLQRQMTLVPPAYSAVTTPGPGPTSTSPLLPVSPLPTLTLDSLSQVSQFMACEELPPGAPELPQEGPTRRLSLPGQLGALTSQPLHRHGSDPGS

SMILES | hERG current change (%, negative = inhibition) at 10uM [%]
Cn1cnc(S(=O)(=O)Nc2ccc(C(F)(F)F)cc2)c1 | -5.41
COc1cc(C)c(C(=O)CSc2nnc(CNC(=O)c3ccco3)n2C)cc1C | 3.76
CCCOc1ccc(N2CC(C(=O)Nc3ccccc3C(=O)NCc3ccco3)CC2=O)cc1 (stereo not drawn) | -71.5
CS(=O)(=O)O.Cc1cccc2c1Sc1ccc(Cl)cc1CC2N1CCNCC1.O (stereo not drawn) | 5.75
COc1cc(C)c2occ(/C(C)=N\O)c2c1 | -8.95
COc1ccc(CC2(CO)CCN(C(=O)NCc3ccccc3)CC2)cc1 | -2.8
O=C1Nc2ccccc2/C1=C/c1cccnc1 | 8.64
C[C@@]12CCC3[C@@](CCC4[C@@]3(C)CCC[C@@]4(C)C(=O)NCc3ccccc3)(CC1=O)C2 (stereo partly drawn) | -5.33
COc1cccc(OC)c1C(=O)Nc1ccc(C(=O)NCc2ccccc2)cc1 | 6.45
COc1ccc(C(=O)Nc2ccc3c(c2)n(C)c(=O)n3C)cc1OC | 11.7
CC(C)NC(=O)C1CCN(C(=O)N(C)C)CC1 | 5.89
O=C(CCCCCN1C(=O)[C@@H]2Cc3ccccc3CN2C1=O)Nc1cccc(F)c1 | -67.9
Cc1nn(Cc2ccc(Cl)cc2)c(C)c1NC(=O)c1ccc([N+](=O)[O-])cc1 | -72.6
Cc1cc(C)nc(NC(=O)c2ccc3c(c2)OCO3)c1 | 17.5
Cc1ccc(OCCCN(C)C)c(Br)c1 | -20.6
CCOc1cc(C(=O)NC(=S)Nc2ccc(Cl)c(C(=O)O)c2)cc(OCC)c1OCC | 4.81
O=C(NCc1cnc2ccccn12)C1CCC(=O)N(Cc2ccccc2F)C1 (stereo not drawn) | 23.4
Cc1ccccc1NS(=O)(=O)c1ccc(C(=O)OCC(=O)NCC(C)C)cc1 | 9.28
O=C(NCC1CCN(Cc2ccccc2Cl)CC1)Nc1cccc(Cl)c1 | -72
Cc1cc(C)c2c(=O)n(-c3ccccc3)[nH]c2n1 | 10.1
CC1CCCN(C(=O)CSc2nnc(-c3ccc(S(=O)(=O)N4CCOCC4)cc3)n2C)C1 (stereo not drawn) | 2.33
O=C(Nc1c(Cl)cc(Cl)cc1C(=O)NCC1CCCO1)c1ccco1 (stereo not drawn) | -1.1

SMILES | hERG current change (%, negative = inhibition) at 10uM [%]
CCN1CCN(C(c2cccs2)C(C)NC(=S)Nc2cccc(C)c2C)CC1 (stereo not drawn) | -72.9
Cc1ccc(C(C)C)cc1S(=O)(=O)Nc1ccncc1 | 13.4
CCN(C(=O)CSc1nc2ccc(OC)cc2[nH]1)C1CCS(=O)(=O)C1 (stereo not drawn) | 1.6
Cc1ccc(-n2c(C)c([N+](=O)[O-])c3ccc(O)cc32)cc1 | 15.7
COC(CNC(=O)CCc1c(C)nc2c(c(C)nn2-c2ccc(C)cc2)c1C)OC | 6.59
O=C(c1cc(COc2ccc(F)cc2F)on1)N1CCCC(c2ccccc2)C1 (stereo not drawn) | 3.73
C=CCN1CC2(c3ccccc3)CN(CC=C)CC(c3ccccc3)(C1)C2=O | -19.3
NC(=O)COC(=O)c1ccc(Cl)c(S(=O)(=O)N(Cc2ccccc2)c2ccc(Cl)cc2)c1 | 5.48
CC(C)(C)C1(O)CC(C(F)(F)F)=NN1C(=O)CCc1ccccc1 (stereo not drawn) | -48.4
Cc1cc(C)cc(N2CC(O)=C(c3nc4ccccc4c(=O)[nH]3)C2=N)c1 | 18.9
Cc1cc(C)c2oc(=O)cc(CN3CCOCC3)c2c1 | 4.16
CC(NS(C)(=O)=O)C(c1cccs1)N1CCN(C)CC1 (stereo not drawn) | 8.91
CC1=C(C(=O)Nc2ccccc2C(F)(F)F)C(c2sccc2C)NC(=S)N1 (stereo not drawn) | 31.4
O=C(Nc1ccc(S(=O)(=O)N2CCCC2)cc1)c1cncc(Br)c1 | -12
CSc1ccc(/C=C/c2ccc3cccc(O)c3n2)cc1 | 10.6
CC(C)n1nccc1N(Cc1ccc(Br)cc1)S(=O)(=O)c1ccccc1 | -15.7
N=C1C(c2ccc(Br)cc2)=C(O)C2CCc3ccccc3N12 (stereo not drawn) | -30.5
C=Cc1ccc(CN2CCCN(Cc3ccc(F)cc3)S2(=O)=O)cc1 | -1.13
CCc1cc2c(CN3CCN(Cc4ccccc4)CC3)cc(=O)oc2cc1O | -35.5
COc1ccc(C2/C(=C(/O)c3ccccc3)C(=O)C(=O)N2C)cc1 (stereo not drawn) | 7.3
O=C(ON=C1CCN(S(=O)(=O)c2ccccc2)CC1)c1ccc(Cl)cc1 | 11.1
CCOC(=O)C1CCN(C(=O)C2CCCN(c3ncnc4c3nc3n4CCCCC3)C2)CC1 (stereo not drawn) | -34.1

SMILES | hERG current change (%, negative = inhibition) at 10uM [%]
O=C(CSc1ccc2nnc(-c3ccncc3)n2n1)Nc1ccc2c(c1)OCCO2 | 10.9
COc1ccc(-c2cc3c(=O)n(CC(=O)NCc4ccc(Cl)cc4)ncn3n2)cc1 | 20.5
Cc1ccc(CN2C(=O)c3ccccc3C2C(=O)NCc2cccnc2)cc1 (stereo not drawn) | -11.3
CCOc1cc(C(=O)NC2CC(C)(C)NC(C)(C)C2)cc(OCC)c1OCC | 20
C/C(Nc1ccc(Cl)cc1)=C(/C#N)C(N)=O | 17
COc1ccccc1OCc1ccc(C(=O)Nc2ccccc2F)cc1 | -0.597
Cc1cccc2cc(CN(Cc3nnnn3C3CCCC3)C3CCCCC3)c(=O)[nH]c12 | -19.7
O=C(O)c1cccc(NS(=O)(=O)c2cccc3nsnc23)c1 | 9.41
NC(=O)C1CCN(C(=O)CCSc2ccc(Cl)cc2)CC1 | -0.503
O=[N+]([O-])c1ccccc1/C=C/CN1CCC(O)CC1 | 18.6
COc1ccc(NC(=O)CC2C(=O)N(c3ccc(OC)cc3)C(=O)N2C(C)C)cc1 (stereo not drawn) | -5.34
COc1cccc(C(c2c(NC(=O)c3ccco3)sc(C)c2C)N2CCOCC2)c1 (stereo not drawn) | -5.67
CN(C)S(=O)(=O)N(CCN1CCOCC1)Cc1ccccc1F | 11.4
COc1ccc(N2CCN(Cc3nc4ccsc4c(=O)[nH]3)CC2)cc1 | 2.6
Cc1cccc(C(=O)NC2CCN(S(=O)(=O)c3ccc(F)cc3)CC2)c1 | 22.3
CC(NC(=O)c1ccccc1)c1nnc(SCC(=O)NC2=NCCS2)n1C (stereo not drawn) | 16.6
COc1cccc(OC)c1C(=O)Nc1ccc2c(c1)Cc1ccccc1-2 | 15.5
CC(C)On1c(SC(C)C)nc2ccccc2c1=O | -5.41
COC(CNC(=O)c1ccc2c(c1)ncn2-c1ccc(F)cc1F)OC | 11.5
O=C(Nc1ccccc1Cl)c1cc[n+]([O-])cc1 | 27.8
C=CCNCCCCOc1cccc(Br)c1.O=C(O)C(=O)O | -11.1
CCOC(=O)c1c(C2CC2)csc1NC(C)=O | -27

SMILES | hERG current change (%, negative = inhibition) at 10uM [%]
CC(OC(=O)c1cccs1)C(=O)NCc1cccs1 (stereo not drawn) | -0.718
CNC(=O)c1c(NC(=O)c2ccc(S(=O)(=O)N3CCCC3)cc2)sc2c1CCN(C(C)C)C2 | 2.7
O=C(c1ccc(CS(=O)(=O)c2ccccc2)o1)N1CCOCC1 | -0.653
CC(C)c1cc(CN2CCOCC2)cc(C(C)C)c1O | 1.13
CCN(C(=O)COC(=O)c1cc2c(s1)CCCCC2)C1CCS(=O)(=O)C1 (stereo not drawn) | 12.1
Cc1cc(C)c(OCC(=O)N(Cc2ccccc2)C2CCS(=O)(=O)C2)c(C)c1 (stereo not drawn) | -36
Cl.c1ccc2c(c1)OCC(C1=NCCN1)O2 (stereo not drawn) | 6.67
CC(=O)NC(CC(=O)Nc1nc(-c2ccccc2)c(C(C)=O)s1)c1ccccc1 (stereo not drawn) | -44.4
CCOc1ccc(/C=C2\SC(=S)N(CCC(=O)Nc3ccc(C(=O)O)cc3)C2=O)cc1 | 23.6
COc1ccc(S(=O)(=O)N2CCN(C(=O)C3CCC3)CC2)cc1 | -4.42
C=CCn1c(SCC(=O)NCc2ccc3c(c2)OCO3)nnc1C1CCCCC1 | -19.8
Cc1cc(NC(=O)COC(=O)CSc2nc3cc(Cl)ccc3n2Cc2ccccc2)no1 | -19.9
N=C1/C(=C\c2ccc(OC(=O)c3ccccc3)cc2)C(=O)N=C2SC(N3CCOCC3)=NN12 | 9.65
CCC(C)N1CCN(C(=O)c2cc(OC)cc(OC)c2)CC1.O=C(O)C(=O)O (stereo not drawn) | 16.6
COc1ccc(/C=C(\NC(=O)c2ccc(C)cc2)C(=O)NCCCn2ccnc2)cc1 | -86.4
CCOc1cccc2sc(N(CCCN(C)C)C(=O)c3ccc(C(=O)c4ccccc4)cc3)nc12.Cl | -72.1
COc1ccc(/C=C2\SC(=S)N(CC(=O)Nc3nnc(C)s3)C2=O)cc1 | 6.86
Cc1cc(C)n2nc(CCCO)nc2n1 | 49.3
Cn1c(=O)oc2cc(S(=O)(=O)CCC(=O)NCCc3ccccc3)ccc21 | 7.46
O=C(O)c1cc(Cl)c(Cl)cc1C(=O)Nc1cccc2ncccc12 | -8.12
CCOc1ccc(CCNc2nc3c(c(=O)n(C)c(=O)n3C)n2CC)cc1OCC | 3.1
